Experimental findings from article PMC9911399, “Two distinct binding modes provide the RNA-binding protein RbFox with extraordinary sequence specificity” are described below.

Residue numbers refer to the chain shown, from its start. The list shows a part of the results.

Sequences and labels used below:
T1: RBFOX1 RRM RbFoxmut (Fox-RRM*) (Homo sapiens, UniProt Q9NWB1 109-208, R118D;E147R;N151S;E152T)
T1 sequence: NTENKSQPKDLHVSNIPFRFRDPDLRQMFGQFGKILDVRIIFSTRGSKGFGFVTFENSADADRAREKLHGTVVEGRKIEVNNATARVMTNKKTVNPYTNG

B1: AUCGGGG (DNA:RNA)
RNA: GGGAGACCGGAAUUCAGAUUGUCCAUCGGGGUUAAAUCCCGUCGUAGCCACCA
DNA 1: CAATCTGAATTCCGGTCTCCC
DNA 2: TGGTGGCTACGACGGGATT
B2: UGUAUUA (DNA:RNA)
RNA: GGGAGACCGGAAUUCAGAUUGUCCUGUAUUAUUAAAUCCCGUCGUAGCCACCA
DNA 1: CAATCTGAATTCCGGTCTCCC
DNA 2: TGGTGGCTACGACGGGATT
B3: UUAGCGU (DNA:RNA)
RNA: B1 RNA with A25U, C27A, G29C, G31U
DNA 1: CAATCTGAATTCCGGTCTCCC
DNA 2: TGGTGGCTACGACGGGATT
B4: AGGUCAC (DNA:RNA)
RNA: B1 RNA with U26G, C27G, G28U, G29C, G30A, G31C
DNA 1: CAATCTGAATTCCGGTCTCCC
DNA 2: TGGTGGCTACGACGGGATT
B5: GGAUAUG (DNA:RNA)
RNA: B2 RNA with U25G, U27A, A28U, U29A, A31G
DNA 1: CAATCTGAATTCCGGTCTCCC
DNA 2: TGGTGGCTACGACGGGATT
B6: GUAUUCA (DNA:RNA)
RNA: B2 RNA with U25G, G26U, U27A, A28U, U30C
DNA 1: CAATCTGAATTCCGGTCTCCC
DNA 2: TGGTGGCTACGACGGGATT
B7: GUCGAAG (DNA:RNA)
RNA: B1 RNA with A25G, G29A, G30A
DNA 1: CAATCTGAATTCCGGTCTCCC
DNA 2: TGGTGGCTACGACGGGATT
B8: GAGUCGG (DNA:RNA)
RNA: B1 RNA with A25G, U26A, C27G, G28U, G29C
DNA 1: CAATCTGAATTCCGGTCTCCC
DNA 2: TGGTGGCTACGACGGGATT
B9: GCUACAA (DNA:RNA)
RNA: B2 RNA with U25G, G26C, U29C, U30A
DNA 1: CAATCTGAATTCCGGTCTCCC
DNA 2: TGGTGGCTACGACGGGATT
B10: ACAGCAG (DNA:RNA)
RNA: B1 RNA with U26C, C27A, G29C, G30A
DNA 1: CAATCTGAATTCCGGTCTCCC
DNA 2: TGGTGGCTACGACGGGATT
B11: UGAGCCG (DNA:RNA)
RNA: B1 RNA with A25U, U26G, C27A, G29C, G30C
DNA 1: CAATCTGAATTCCGGTCTCCC
DNA 2: TGGTGGCTACGACGGGATT
B12: ACUACCG (DNA:RNA)
RNA: B1 RNA with U26C, C27U, G28A, G29C, G30C
DNA 1: CAATCTGAATTCCGGTCTCCC
DNA 2: TGGTGGCTACGACGGGATT
B13: GCGUCAC (DNA:RNA)
RNA: GGGAGACCGGAAUUCAGAUUGUCCGCGUCACUUAAAUCCCGUCGUAGCCACCA
DNA 1: CAATCTGAATTCCGGTCTCCC
DNA 2: TGGTGGCTACGACGGGATT
B14: CAAUGCG (DNA:RNA)
RNA: B1 RNA with A25C, U26A, C27A, G28U, G30C
DNA 1: CAATCTGAATTCCGGTCTCCC
DNA 2: TGGTGGCTACGACGGGATT
B15: GAUGCCC (DNA:RNA)
RNA: B13 RNA with C26A, G27U, U28G, A30C
DNA 1: CAATCTGAATTCCGGTCTCCC
DNA 2: TGGTGGCTACGACGGGATT
B16: UCUUUAA (DNA:RNA)
RNA: B2 RNA with G26C, A28U, U30A
DNA 1: CAATCTGAATTCCGGTCTCCC
DNA 2: TGGTGGCTACGACGGGATT
B17: UUACGUC (DNA:RNA)
RNA: B1 RNA with A25U, C27A, G28C, G30U, G31C
DNA 1: CAATCTGAATTCCGGTCTCCC
DNA 2: TGGTGGCTACGACGGGATT
B18: GACCACU (DNA:RNA)
RNA: B1 RNA with A25G, U26A, G28C, G29A, G30C, G31U
DNA 1: CAATCTGAATTCCGGTCTCCC
DNA 2: TGGTGGCTACGACGGGATT
B19: GGUUGUG (DNA:RNA)
RNA: B2 RNA with U25G, A28U, U29G, A31G
DNA 1: CAATCTGAATTCCGGTCTCCC
DNA 2: TGGTGGCTACGACGGGATT
B20: ACCCCCU (DNA:RNA)
RNA: B1 RNA with U26C, G28C, G29C, G30C, G31U
DNA 1: CAATCTGAATTCCGGTCTCCC
DNA 2: TGGTGGCTACGACGGGATT
B21: GCUCAGA (DNA:RNA)
RNA: B13 RNA with G27U, U28C, C29A, A30G, C31A
DNA 1: CAATCTGAATTCCGGTCTCCC
DNA 2: TGGTGGCTACGACGGGATT
B22: AAAAAAG (DNA:RNA)
RNA: B1 RNA with U26A, C27A, G28A, G29A, G30A
DNA 1: CAATCTGAATTCCGGTCTCCC
DNA 2: TGGTGGCTACGACGGGATT
B23: GCCACGA (DNA:RNA)
RNA: B13 RNA with G27C, U28A, A30G, C31A
DNA 1: CAATCTGAATTCCGGTCTCCC
DNA 2: TGGTGGCTACGACGGGATT
B24: GAGUCAC (DNA:RNA)
RNA: B13 RNA with C26A
DNA 1: CAATCTGAATTCCGGTCTCCC
DNA 2: TGGTGGCTACGACGGGATT
B25: AACAGCC (DNA:RNA)
RNA: B1 RNA with U26A, G28A, G30C, G31C
DNA 1: CAATCTGAATTCCGGTCTCCC
DNA 2: TGGTGGCTACGACGGGATT
B26: UUGUCCG (DNA:RNA)
RNA: B13 RNA with G25U, C26U, A30C, C31G
DNA 1: CAATCTGAATTCCGGTCTCCC
DNA 2: TGGTGGCTACGACGGGATT
B27: CAUCUGC (DNA:RNA)
RNA: B2 RNA with U25C, G26A, A28C, U30G, A31C
DNA 1: CAATCTGAATTCCGGTCTCCC
DNA 2: TGGTGGCTACGACGGGATT
B28: CUGCAGG (DNA:RNA)
RNA: B1 RNA with A25C, C27G, G28C, G29A
DNA 1: CAATCTGAATTCCGGTCTCCC
DNA 2: TGGTGGCTACGACGGGATT
B29: GCUACAU (DNA:RNA)
RNA: B13 RNA with G27U, U28A, C31U
DNA 1: CAATCTGAATTCCGGTCTCCC
DNA 2: TGGTGGCTACGACGGGATT
B30: AGUAAAC (DNA:RNA)
RNA: B2 RNA with U25A, U29A, U30A, A31C
DNA 1: CAATCTGAATTCCGGTCTCCC
DNA 2: TGGTGGCTACGACGGGATT
B31: CGAGGUG (DNA:RNA)
RNA: B1 RNA with A25C, U26G, C27A, G30U
DNA 1: CAATCTGAATTCCGGTCTCCC
DNA 2: TGGTGGCTACGACGGGATT

The target in the test is T1, RBFOX1 RRM RbFoxmut (Fox-RRM*). The test is described as follows: EMSA; HiTS-Eq, 1 nM pool, 10 min; buffer printed only for the single-RNA assays: 10 mM Tris pH 7.5, 150 mM NaCl, 3.4 mM EDTA, 0.001% NP-40, 30 C. The note with it: tags: His6 N-terminal (pET28a); label: 5' 32P. Summed up:
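Relative association constants, normalised to the cognate motif, were derived by comparing read counts of each RNA species with those of the control reaction. The RNA sequenced was the free fraction, separated by 8% native PAGE after a 10 min equilibration in 50 µL of 1 nM 5′-radiolabelled RNA (7 randomized nucleotides) with increasing concentrations of purified wild-type or mutant RbFox RRM.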
(In general: In EMSA bound probe runs differently from free probe, usually more slowly.)
As to B1, the binding signal was 0.109 KA relative to UGCAUGU.
In the case of B2 it was 0.175 KA relative to UGCAUGU; in that of B3, 0.112 KA relative to UGCAUGU; in that of B4, 0.0498 KA relative to UGCAUGU.
In the case of B5 it was 0.496 KA relative to UGCAUGU; in that of B6, 0.123 KA relative to UGCAUGU.
With B7, the binding signal is 0.111 KA relative to UGCAUGU.
On to B8, for which the binding signal was 0.079 KA relative to UGCAUGU.
With B9, the binding signal was 0.0743 KA relative to UGCAUGU.
With B10 the figure was 0.0954 KA relative to UGCAUGU; with B11, 0.0906 KA relative to UGCAUGU; with B12, 0.0881 KA relative to UGCAUGU.
For the molecule B13, the binding signal is 0.0714 KA relative to UGCAUGU.
Consider B14, for which the binding signal is 0.13 KA relative to UGCAUGU.
In the case of B15 it was 0.0444 KA relative to UGCAUGU; in that of B16, 0.113 KA relative to UGCAUGU; in that of B17, 0.0615 KA relative to UGCAUGU.
Consider B18, for which the binding signal is 0.0643 KA relative to UGCAUGU.
In the case of B19 it was 0.296 KA relative to UGCAUGU; in that of B20, 0.0632 KA relative to UGCAUGU; in that of B21, 0.0849 KA relative to UGCAUGU.
As for B22, the binding signal is 0.127 KA relative to UGCAUGU.
Turning to B23, the binding signal was 0.0882 KA relative to UGCAUGU.
In the case of B24 it was 0.0599 KA relative to UGCAUGU; in that of B25, 0.0644 KA relative to UGCAUGU; in that of B26, 0.188 KA relative to UGCAUGU.
In the case of B27 it was 0.072 KA relative to UGCAUGU; in that of B28, 0.0971 KA relative to UGCAUGU; in that of B29, 0.103 KA relative to UGCAUGU.
With B30, the binding signal is 0.0523 KA relative to UGCAUGU.
With B31 the figure was 0.142 KA relative to UGCAUGU.
